# Measurements: a collection of fitness landscapes (doi:10.1038/s41467-024-54723-y)
# The full ranking holds about 18,000 sequences; the median of “TetR repression strength (sort-seq, GFP reporter)” is about 0.23, and the highest 2% start at about 0.68. The list shows a part of the results.
# Target: TetR (class B, Tn10) (UniProt P04483)
# Test: TetR repression strength (sort-seq, GFP reporter) (relative to tetO2 = 1); higher = stronger repression
# Conditions: E. coli
# How it was run: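 Three independent transformations of E. coli SIG10-MAX were made with a low-copy plasmid library randomizing eight operator positions between a constitutive promoter and sfGFP, with constitutive TetR. Following 5 h at 37 °C in LB plus 50 µg/mL chloramphenicol, 10^6 cells went through FACS into 13 fluorescence bins, and each bin was sequenced by Illumina. Repression strength was defined as the top bin index plus one minus the read-weighted mean bin, divided by the unaltered operator's value. Averages included only members reaching ≥30 reads in all replicates with a CV ≤0.5.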
# Chain of UniProt P04483 (P04483 whole entry): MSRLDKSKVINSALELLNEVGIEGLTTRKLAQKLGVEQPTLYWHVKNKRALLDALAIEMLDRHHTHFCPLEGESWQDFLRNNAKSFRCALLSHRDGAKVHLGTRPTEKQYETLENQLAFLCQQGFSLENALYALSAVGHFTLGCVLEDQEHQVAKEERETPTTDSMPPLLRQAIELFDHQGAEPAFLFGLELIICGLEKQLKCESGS
row,Sequence,TetR repression strength
1,TCCCAAAGAGTAGGGGAGA,0.125
2,TCCCCGTCAGTGGGGGAGA,0.328
3,TCCCTGCAAGTACCTGAGA,0.308
4,TCCCTAGGAGTGATAGAGA,0.52
5,TCCCCCGGAGTCTTGGAGA,0.176
6,TCCCGACGAGTATGTGAGA,0.173
7,TCCCTTGCAGTTGTAGAGA,0.15
8,TCCCTAGCAGTATGGGAGA,0.0462
9,TCCCTTCAAGTGACTGAGA,0.444
10,TCCCTTCGAGTTAGGGAGA,0.549
11,TCCCCTTGAGTACGCGAGA,0.203
12,TCCCGTCGAGTGTGTGAGA,0.138
13,TCCCTTGGAGTAGGTGAGA,0.0675
14,TCCCTTCCAGTGTTGGAGA,0.561
15,TCCCTGTGAGTAGTGGAGA,0.183
16,TCCCGCATAGTGTGTGAGA,0.301
17,TCCCAGAAAGTGTTAGAGA,0.299
18,TCCCGTCTAGTAGAGGAGA,0.213
19,TCCCATATAGTGTGTGAGA,0.267
20,TCCCGGTTAGTGAACGAGA,0.207
21,TCCCCCAGAGTTTGTGAGA,0.302
22,TCCCATGGAGTTCGAGAGA,0.0732
23,TCCCACATAGTCGAGGAGA,0.328
24,TCCCTTACAGTTGATGAGA,0.291
25,TCCCACGGAGTCTGGGAGA,0.0855
26,TCCCTCGAAGTGTGCGAGA,0.248

row,Sequence,TetR repression strength
1,TCCCCCCCAGTCGAGGAGA,0.0963
2,TCCCTCAAAGTGGGGGAGA,0.066
3,TCCCTCTAAGTGGTGGAGA,0.163
4,TCCCCGTTAGTCGGGGAGA,0.207
5,TCCCCATAAGTCCTGGAGA,0.231
6,TCCCTAACAGTCAACGAGA,0.31
7,TCCCTCGAAGTTCAAGAGA,0.359
8,TCCCGGGCAGTTGGGGAGA,0.323
9,TCCCTTGGAGTTGAGGAGA,0.465
10,TCCCGTGAAGTGGTGGAGA,0.548
11,TCCCATCGAGTTGCAGAGA,0.0504
12,TCCCAGAGAGTATCCGAGA,0.274
13,TCCCAGAGAGTGTGAGAGA,0.26
14,TCCCACTAAGTGAGAGAGA,0.361
15,TCCCCAGCAGTAAGGGAGA,0.227
16,TCCCGCTTAGTCACGGAGA,0.257
17,TCCCGACAAGTTGTTGAGA,0.15
18,TCCCCATGAGTGTTGGAGA,0.199
19,TCCCTGTGAGTGTCAGAGA,0.169
20,TCCCTGTCAGTGAGGGAGA,0.272
21,TCCCTAAGAGTCTTAGAGA,0.441
22,TCCCAGGCAGTTAGGGAGA,0.077
23,TCCCACGGAGTATTTGAGA,0.194
24,TCCCGGCAAGTCAATGAGA,0.205
25,TCCCGGCGAGTAGTGGAGA,0.188
26,TCCCAAGGAGTACTCGAGA,0.135

row,Sequence,TetR repression strength
1,TCCCTGTCAGTGATGGAGA,0.523
2,TCCCCAGGAGTTGTGGAGA,0.578
3,TCCCGACAAGTGATGGAGA,0.304
4,TCCCATCGAGTCACAGAGA,0.341
5,TCCCGTACAGTTTGTGAGA,0.314
6,TCCCACTTAGTTCGTGAGA,0.245
7,TCCCAGATAGTGGATGAGA,0.0745
8,TCCCCCGGAGTCGGGGAGA,0.17
9,TCCCGATTAGTGGAGGAGA,0.179
10,TCCCATGAAGTAGCGGAGA,0.282
11,TCCCATTTAGTAAAGGAGA,0.149
12,TCCCAGATAGTAAGCGAGA,0.171
13,TCCCGACGAGTAGCCGAGA,0
14,TCCCGGGTAGTTACTGAGA,0.123
15,TCCCTTAAAGTCCGAGAGA,0.291
16,TCCCATTTAGTGTGCGAGA,0.0814
17,TCCCGATTAGTTATTGAGA,0.351
18,TCCCGTGAAGTTCGGGAGA,0.579
19,TCCCAAGGAGTCGTGGAGA,0.327
20,TCCCCGAAAGTGGCCGAGA,0.0544
21,TCCCCCTAAGTAGGTGAGA,0.49
22,TCCCACTCAGTTTCTGAGA,0.378
23,TCCCTTTGAGTTCACGAGA,0.232
24,TCCCTTGGAGTGAGTGAGA,0.237
25,TCCCAGGGAGTGTATGAGA,0.169
26,TCCCATCCAGTGCTTGAGA,0.267

row,Sequence,TetR repression strength
1,TCCCTAACAGTACTGGAGA,0.104
2,TCCCTGCCAGTCCTTGAGA,0.354
3,TCCCTATCAGTAATTGAGA,0.787
4,TCCCCACGAGTGCGGGAGA,0.194
5,TCCCCAGAAGTATTCGAGA,0.193
6,TCCCGACCAGTGATAGAGA,0.662
7,TCCCACTTAGTCGGCGAGA,0.16
8,TCCCGTTAAGTAGGAGAGA,0.125
9,TCCCCCTCAGTGTGAGAGA,0.401
10,TCCCTGAGAGTCAAGGAGA,0.446
11,TCCCATGTAGTAGTGGAGA,0.292
12,TCCCGGGGAGTTACAGAGA,0.903
13,TCCCGGCCAGTTGAGGAGA,0.132
14,TCCCTCTTAGTAGGCGAGA,0.0406
15,TCCCCGTGAGTGCAAGAGA,0.408
16,TCCCTTCAAGTGGAGGAGA,0.346
17,TCCCAACGAGTGCGCGAGA,0.413
18,TCCCTGGCAGTGAGAGAGA,0.356
19,TCCCGGATAGTAGTAGAGA,0.49
20,TCCCTGTCAGTGGGCGAGA,0.184
21,TCCCCATGAGTAGTCGAGA,1.03
22,TCCCGCGAAGTGCAGGAGA,0.379
23,TCCCATACAGTCGGTGAGA,0.186
24,TCCCAGTTAGTCTAGGAGA,0.143
25,TCCCTTAAAGTTTTGGAGA,0.269
26,TCCCGTTAAGTTTCTGAGA,0.302

row,Sequence,TetR repression strength
1,TCCCAGGGAGTACGGGAGA,0.167
2,TCCCTCTCAGTTCGTGAGA,0.181
3,TCCCGTCGAGTATCGGAGA,0.14
4,TCCCAAGAAGTGAGGGAGA,0.0518
5,TCCCTATGAGTACGAGAGA,0.291
6,TCCCTGAAAGTACGGGAGA,0.236
7,TCCCGCGAAGTGGCCGAGA,0.0629
8,TCCCCCCAAGTGCAAGAGA,0.607
9,TCCCAGGTAGTGAGGGAGA,0.233
10,TCCCCAATAGTACGGGAGA,0.157
11,TCCCCGTGAGTGGGGGAGA,0.263
12,TCCCGATCAGTTGTTGAGA,0.398
13,TCCCGTGCAGTAAACGAGA,0.326
14,TCCCCTGGAGTAGTCGAGA,0.235
15,TCCCAAGGAGTTGGAGAGA,0.103
16,TCCCGTACAGTACAGGAGA,0.181
17,TCCCATCCAGTATGAGAGA,0.077
18,TCCCCAGGAGTCCGTGAGA,0.301
19,TCCCGTTGAGTTTCTGAGA,0.744
20,TCCCAGGGAGTCTATGAGA,0.126
21,TCCCGTCTAGTAGCAGAGA,0.634
22,TCCCAGGTAGTTAGAGAGA,0.198
23,TCCCTGCAAGTGTTGGAGA,0.165
24,TCCCTACCAGTAACGGAGA,0.0744
25,TCCCTGGGAGTCCGCGAGA,0.24
26,TCCCAGATAGTAGATGAGA,0.137

row,Sequence,TetR repression strength
1,TCCCCTAAAGTCCATGAGA,0.258
2,TCCCGGTCAGTTCTAGAGA,0.362
3,TCCCATGGAGTCCGGGAGA,0.192
4,TCCCTTAGAGTTGTAGAGA,0.188
5,TCCCGGGGAGTATTCGAGA,0.235
6,TCCCTATTAGTGACTGAGA,0.345
7,TCCCGTTCAGTGGGGGAGA,0.277
8,TCCCCGAGAGTGCCAGAGA,0.411
9,TCCCTATAAGTTATAGAGA,0.651
10,TCCCATTAAGTAGGAGAGA,0.2
11,TCCCGGGCAGTGAGGGAGA,0.659
12,TCCCTGGAAGTTTGGGAGA,0.178
13,TCCCGTTCAGTGAGAGAGA,0.516
14,TCCCTTGTAGTTCGCGAGA,0.153
15,TCCCGTGAAGTCGAGGAGA,0.0928
16,TCCCCGGGAGTGTATGAGA,0.232
17,TCCCATCGAGTACGGGAGA,0.185
18,TCCCCACAAGTATCAGAGA,0.752
19,TCCCGTAAAGTGATCGAGA,0.127
20,TCCCTCCGAGTTCATGAGA,0.272
21,TCCCGAACAGTTTTAGAGA,0.248
22,TCCCGCCCAGTTCTAGAGA,0.43
23,TCCCATGTAGTATGGGAGA,0.283
24,TCCCGGCGAGTATTGGAGA,0.266
25,TCCCCTGGAGTCTCTGAGA,0.19
26,TCCCCCACAGTGAGGGAGA,0.311

row,Sequence,TetR repression strength
1,TCCCGGCGAGTTACCGAGA,0.287
2,TCCCTAGAAGTGCGTGAGA,0.176
3,TCCCTGGGAGTGTAGGAGA,0.233
4,TCCCGCCCAGTGGGCGAGA,0.175
5,TCCCCCCCAGTGCAGGAGA,0.292
6,TCCCATGTAGTGAGAGAGA,0.17
7,TCCCGACGAGTCGCGGAGA,0.179
8,TCCCTCTCAGTACACGAGA,0.458
9,TCCCTGCCAGTGATAGAGA,0.646
10,TCCCGATTAGTAGGGGAGA,0.844
11,TCCCTGGCAGTGGGGGAGA,0.247
12,TCCCTCGGAGTGATTGAGA,0.359
13,TCCCAGTGAGTCAGTGAGA,0.157
14,TCCCGATGAGTCCGCGAGA,0.0471
15,TCCCAATTAGTTGTTGAGA,0.119
16,TCCCTACGAGTATTAGAGA,0.00415
17,TCCCTAGGAGTCAACGAGA,0.3
18,TCCCTGAGAGTGGTCGAGA,0.299
19,TCCCTATTAGTATGAGAGA,0.278
20,TCCCGCCCAGTTGAGGAGA,0.175
21,TCCCGGGAAGTTGGAGAGA,0.199
22,TCCCATAAAGTGGGAGAGA,0
23,TCCCCGCCAGTGGGTGAGA,0.198
24,TCCCAAAAAGTCCATGAGA,0.188
25,TCCCCTCCAGTGCGGGAGA,0.148
26,TCCCGGGCAGTGTGCGAGA,0.301

row,Sequence,TetR repression strength
1,TCCCTTCGAGTATATGAGA,0.444
2,TCCCCGTCAGTTCGAGAGA,0.213
3,TCCCGTCGAGTCGACGAGA,0.303
4,TCCCCGCAAGTGCCTGAGA,0.285
5,TCCCACGAAGTGCGAGAGA,0.0666
6,TCCCAACCAGTTCAGGAGA,0.17
7,TCCCAGGGAGTTTAAGAGA,0.231
8,TCCCCTACAGTGGTGGAGA,0.319
9,TCCCCGAAAGTGAGGGAGA,0.0354
10,TCCCACGTAGTTGGGGAGA,0.262
11,TCCCTGGCAGTTAGTGAGA,0.218
12,TCCCGCTCAGTGAACGAGA,0.432
13,TCCCGATGAGTTAGAGAGA,0.749
14,TCCCGCATAGTTGGCGAGA,0.272
15,TCCCGGGGAGTTCTAGAGA,0.432
16,TCCCGGCTAGTGTCAGAGA,0.196
17,TCCCTCATAGTAGGGGAGA,0.146
18,TCCCCTGCAGTCCTAGAGA,0.23
19,TCCCGGGCAGTTGGAGAGA,0.57
20,TCCCCTAAAGTAGTCGAGA,0.144
21,TCCCAAAAAGTTCCGGAGA,0.0327
22,TCCCAAACAGTGCAAGAGA,0.415
